Assay results as given in the supplement of paper PMC9446081.
Among all 39,000 compounds or so, about 220 (0.56%) showed activity. The list shows a part of the results.

Test system: Escherichia coli K-12 BW25113
Assay: relative growth (OD600 normalised to plate interquartile mean) (fraction); higher = less growth inhibition, active = 0.2 or less
Conditions: 50 µM; LB; incubation time: overnight (16-24 h)
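Also: static incubation at 37 °C against the wild-type strain, values averaged over two biological replicates.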

Question: For `C[C@H]1CN([C@@H](C)CO)C(=O)Cc2cc(NC(=O)Cc3cn(C)c4ccccc34)ccc2O[C@H]1CN(C)Cc1ccc(Oc2ccccc2)cc1`, which relative growth is on record?
Answer: inactive: 1.05

Question: `CN(C)C(=O)N1C[C@@H]2[C@@H](C1)C(=O)N(C)C21CCN(S(C)(=O)=O)CC1` was tested. Which relative growth did it give?
Answer: inactive: 0.987

Question: Which relative growth does the source give for `C[C@@H]1CCCCO[C@H](CN(C)S(=O)(=O)c2cccs2)[C@@H](C)CN([C@H](C)CO)C(=O)c2cc(NS(C)(=O)=O)ccc2O1` here?
Answer: inactive: 0.98

Question: Which relative growth does the source give for `CCC[C@@H](O)C#Cc1cnc2c(c1)C(=O)N([C@H](C)CO)C[C@H](C)[C@H](CN(C)S(=O)(=O)c1cccs1)O2` here?
Answer: inactive: 0.976

Question: Which relative growth does the source give for `C[C@@H]1CCCCO[C@@H](CN(C)C(=O)Nc2cccc3ccccc23)[C@H](C)CN([C@H](C)CO)C(=O)c2cc(NS(=O)(=O)c3cccs3)ccc2O1` here?
Answer: inactive: 1.04

Question: With `O=C1C[C@H](c2ccc(-c3ccc(C(F)(F)F)cc3)cc2)C2(C(=O)c3ccccc3C2=O)[C@H](c2ccccc2)C1` as the compound, how does the relative growth read?
Answer: inactive: 1.02

Question: How did the relative growth turn out when `COc1ccc(S(=O)(=O)N(C)C[C@H]2Oc3ccc(NC(=O)Nc4c(C)noc4C)cc3CC(=O)N([C@@H](C)CO)C[C@@H]2C)cc1` was run?
Answer: inactive: 0.997

Question: Which relative growth does the source give for `Cc1noc(C)c1NC(=O)N(C)C[C@H]1OCCCC[C@H](C)Oc2ccc(NC(=O)Nc3ccccc3)cc2C(=O)N([C@H](C)CO)C[C@@H]1C` here?
Answer: inactive: 1

Question: For `COCCNC(=O)C[C@H]1CC[C@@H]2[C@@H](COc3ccc(NC(=O)Nc4cccc(F)c4)cc3C(=O)N2C)O1`, which relative growth is on record?
Answer: inactive: 0.922

Question: For `CN(C)C(=O)C[C@@H]1CC[C@H](NC(=O)C2CCOCC2)[C@H](CO)O1`, which relative growth is on record?
Answer: inactive: 0.988

Question: How did the relative growth turn out when `Cc1ccc(S(=O)(=O)N(C)C[C@@H]2Oc3c(NS(=O)(=O)c4ccccc4)cccc3C(=O)N([C@@H](C)CO)C[C@@H]2C)cc1` was run?
Answer: inactive: 1.03

Question: How did the relative growth turn out when `C[C@H]1CN([C@@H](C)CO)C(=O)Cc2cc(NC(=O)CCN3CCOCC3)ccc2O[C@@H]1CN(C)Cc1ccccc1` was run?
Answer: inactive: 1.01

Question: `COc1ccc(cc1)CN1C[C@]2(CN(C2)S(=O)(=O)c2cn(cn2)C)c2c([nH]c3cc(ccc23)OC)[C@H]1CO` was tested. Which relative growth did it give?
Answer: inactive: 1

Question: How did the relative growth turn out when `Cc1nccn1-c1ccc(CN)cc1` was run?
Answer: inactive: 0.991

Question: How did the relative growth turn out when `C=CC(C1=CC(=O)C=CC1=O)c1ccccc1` (stereo not given) was run?
Answer: inactive: 1.02

Question: `COC(=O)CC1C2(C)CC34OC5(C)OC6(C7C(=C(O)C(C)C)C(=O)OC(c8ccoc8)C7(C)C(OC(C)=O)C(OC(C)=O)C6(O5)C13C)C(OC(C)=O)C4(O)C2OC(=O)C(C)C` (stereo not given) was tested. Which relative growth did it give?
Answer: inactive: 0.876

Question: Which relative growth does the source give for `O=C(O)c1ccc(O)c(O)c1` here?
Answer: inactive: 0.98

Question: For `CC1(C)OC2CC3C4CC(F)C5=CC(=O)C=CC5(C)C4C(O)CC3(C)C2(C(=O)CO)O1` (stereo not given), which relative growth is on record?
Answer: inactive: 1.07

Question: Which relative growth does the source give for `C=CCC[C@@H](Cc1ccc(F)cc1)C(=O)OC[C@H](Cc1c[nH]c2ccccc12)NC(=O)[C@@H](CC=C)CC(=O)N[C@@H](CO)Cc1ccccc1` here?
Answer: inactive: 1.01

Question: With `CCS(=O)(=O)Nc1ccc2c(c1)C(=O)N(C)[C@H]1CC[C@H](CC(=O)Nc3ccccc3C)O[C@@H]1CO2` as the compound, how does the relative growth read?
Answer: inactive: 1.01

Question: `O=C(CN1CCOCC1)N[C@@H]1CC[C@@H](CCn2cc(C3CCCC3)nn2)O[C@@H]1CO` was tested. Which relative growth did it give?
Answer: inactive: 1.02

Question: For `COC(=O)c1c(CC[C@@H](CO)NC(=O)N[C@H](Cn2cc(C3(O)CCCCC3)nn2)C(C)C)oc(C(C)=O)c1C(=O)OC`, which relative growth is on record?
Answer: inactive: 1

Question: How did the relative growth turn out when `COc1ccc2c3c([nH]c2c1)[C@@H](CO)N(C[C@]13CCN(CC1)C(=O)c1cccnc1)C(=O)c1cccnc1` was run?
Answer: inactive: 1

Question: `C[C@H](CO)N1C[C@H](C)[C@@H](CN(C)C(=O)Nc2cccc3ccccc23)Oc2ccc(NC(=O)Nc3ccccc3)cc2C1=O` was tested. Which relative growth did it give?
Answer: inactive: 1.01

Question: With `CO[C@@H](C(=O)N(C)C[C@@H]1OCc2ccccc2-c2c(n(C)c3ccccc23)C(=O)N([C@@H](C)CO)C[C@@H]1C)c1ccccc1` as the compound, how does the relative growth read?
Answer: inactive: 1.01

Question: With `Cc1nnc(SCC2=C(C(=O)O)N3C(=O)[C@@H](NC(=O)Cn4cnnn4)[C@H]3SC2)s1` as the compound, how does the relative growth read?
Answer: active: 0.0386

Question: Which relative growth does the source give for `CC(C)NC(=O)[C@@H](C)n1ncn2cccc2c1=O` here?
Answer: inactive: 0.801

Question: With `COC(=O)CCCCCCC(=O)N/N=C/[C@H](O)[C@@H](O)[C@H](O)[C@H](O)CO[C@H]1O[C@H](CO)[C@H](O)[C@H](O)[C@H]1O` as the compound, how does the relative growth read?
Answer: inactive: 1.01

Question: With `C[C@H]1CN([C@@H](C)CO)C(=O)c2cccc(NC(=O)CCCCCC(=O)Nc3ccccc3N)c2O[C@H]1CN(C)Cc1ccc(Oc2ccccc2)cc1` as the compound, how does the relative growth read?
Answer: inactive: 0.996

Question: For `COc1cccc(S(=O)(=O)N(C)C[C@@H]2Oc3ncc(C#CCN(C)C)cc3C(=O)N([C@@H](C)CO)C[C@@H]2C)c1`, which relative growth is on record?
Answer: inactive: 1.01

Question: `CC(C)NC(=O)Nc1ccc2c(c1)C(=O)N([C@@H](C)CO)C[C@H](C)[C@H](CN(C)C(=O)C1CCCCC1)OCCCC[C@H](C)O2` was tested. Which relative growth did it give?
Answer: inactive: 0.784

Question: For `CN(C)CCCC[C@@H]1NC(=O)[C@H]2C[C@@H](C(=O)NCCCCCNC(=O)CS)[C@@H](c3ccc(O)cc3)N2C1=O`, which relative growth is on record?
Answer: inactive: 0.993

Question: For `C[C@H](CO)N1C[C@H](C)[C@@H](CN(C)S(=O)(=O)c2ccc(F)cc2)OCCCC[C@H](C)Oc2ccc(NC(=O)Nc3cccc4ccccc34)cc2C1=O`, which relative growth is on record?
Answer: inactive: 0.973

Question: Which relative growth does the source give for `Cc1noc(C)c1NC(=O)Nc1cccc2c1O[C@@H](CN(C)S(=O)(=O)c1ccccc1)[C@@H](C)CN([C@@H](C)CO)C2=O` here?
Answer: inactive: 1.02

Question: How did the relative growth turn out when `COc1cccc(S(=O)(=O)Nc2ccc3c(c2)[C@@H]2C[C@@H](CC(=O)NCc4ccccc4F)O[C@@H](CO)[C@@H]2O3)c1` was run?
Answer: inactive: 0.985

Question: For `CC(=O)OC1CCC2(C)C(CCC3C2CCC2(C)C3CC3OC4(CCC(C)CO4)C(C)C32)C1` (stereo not given), which relative growth is on record?
Answer: inactive: 1.13

Question: For `CCCCS(=N)(=O)CC[C@H](N)C(=O)O` (stereo not given in full), which relative growth is on record?
Answer: inactive: 1.01

Question: Which relative growth does the source give for `C#CCn1c(=O)c2c(OC)ccnc2n(C)c1=O` here?
Answer: inactive: 1.02

Question: With `O=C(O)/C=C/C(=O)NC1CC1` as the compound, how does the relative growth read?
Answer: inactive: 0.972

Question: How did the relative growth turn out when `C[C@H](CO)N1C[C@H](C)[C@H](CN(C)S(=O)(=O)c2ccc(Cl)cc2)OCCCC[C@H](C)Oc2ccc(NC(=O)c3ccccc3)cc2C1=O` was run?
Answer: inactive: 1.04
